# From PMC6919601, “Identification of Plasmodium dipeptidyl aminopeptidase allosteric inhibitors by high throughput screening” (PLoS ONE, 2019)
# “And” between values parts separate entries of the source, which are not always exact repeats. Equal values may be shown once. Among all 110,000 compounds or so, about 230 (0.21%) showed an effect of 50% or more. Some of the results follow.
# Target: DPAP1 (Plasmodium falciparum, UniProt Q8IIJ9)
# Assay: primary screen, percent inhibition; read by cleavage of a fluorogenic dipeptide substrate; higher = more effect of the substance
# Set-up: species or system P. falciparum D10 trophozoite lysates; single well
# 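Also: 30 min substrate incubation versus DMSO and 10 µM JCP410 controls.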
# Sequence of DPAP1 (Q8IIJ9 whole entry, looked up): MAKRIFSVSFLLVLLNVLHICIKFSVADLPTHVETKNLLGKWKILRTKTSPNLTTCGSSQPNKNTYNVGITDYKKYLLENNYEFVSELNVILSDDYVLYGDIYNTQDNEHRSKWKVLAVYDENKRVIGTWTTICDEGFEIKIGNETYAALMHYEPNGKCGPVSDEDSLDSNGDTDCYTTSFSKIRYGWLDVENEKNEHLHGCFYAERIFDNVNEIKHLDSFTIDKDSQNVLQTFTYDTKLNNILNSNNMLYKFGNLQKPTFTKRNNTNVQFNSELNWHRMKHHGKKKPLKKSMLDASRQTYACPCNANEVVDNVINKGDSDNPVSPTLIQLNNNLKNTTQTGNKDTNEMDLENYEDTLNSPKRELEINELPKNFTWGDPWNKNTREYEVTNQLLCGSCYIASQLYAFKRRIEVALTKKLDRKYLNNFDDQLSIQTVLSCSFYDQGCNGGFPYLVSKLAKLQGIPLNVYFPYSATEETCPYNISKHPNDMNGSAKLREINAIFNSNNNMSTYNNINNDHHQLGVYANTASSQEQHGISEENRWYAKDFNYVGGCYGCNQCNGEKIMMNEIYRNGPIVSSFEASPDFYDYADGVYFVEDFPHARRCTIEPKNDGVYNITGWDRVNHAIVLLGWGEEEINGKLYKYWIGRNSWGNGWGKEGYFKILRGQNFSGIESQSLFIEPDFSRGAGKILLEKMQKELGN
row,SMILES,% Inhibition @ 10 uM
1,COc1ccccc1-c1cc(C(=O)NCc2ccccn2)c2ccccc2n1,0.144%
2,COc1ccc(/C=C\C(=O)Nc2c3c(nn2-c2ccc(C)cc2)CSC3)cc1OC,10.1%
3,Cc1ccc(OCC(=O)Nc2cnn(Cc3ccccc3)c2)cc1,-3.05%
4,Clc1cccc(CN2CCN(C/C=C/c3ccccc3)CC2)c1Cl,0.605%
5,O=C(Nc1cccc2ccccc12)C1CC1(c1ccccc1)c1ccccc1 (stereo not shown),1.24%
6,CC(=O)C1=C(C)NC(SCc2ccccc2)=C(C#N)C1c1ccccc1 (stereo not shown),3.06%
7,CCCCOc1ccc(S(=O)(=O)NCc2ccco2)cc1,4.1%
8,CC(C)C[C@H](NS(=O)(=O)c1ccccc1F)C(=O)NCC#N,-4.72%
9,O=C(CNC(=S)N(Cc1ccccc1)Cc1ccccc1F)NCc1ccccc1,-0.733%
10,Cc1ccccc1N1CCN(Cc2ccc(F)cc2F)CC1,1.63%
11,Cc1sc2c(c1C)c(=O)n(Cc1ccccc1)c(=O)n2CC(=O)NCCC1=CCCCC1,15.1%
12,Cc1cccc(CCNC(=O)c2ccc(CNc3c(N4CCC(C)CC4)c(=O)c3=O)cc2)c1,16.4%
13,N#Cc1cc2c(N)c(C(=O)c3ccc(Br)cc3)sc2nc1N,2.7%
14,NS(=O)(=O)c1ccc(CCNC(=O)c2cc3c(Cl)nc4ccccc4c3s2)cc1,-3.37%
15,N#CCNC(=O)C(CC1CCCCC1)C(=O)NCC#N,-0.214%
16,O=C(N[C@H](/C=C/S(=O)(=O)c1ccccc1)CCc1ccccc1)[C@H](CS(=O)(=O)Cc1ccccc1OC(F)F)NC(=O)N1CCOCC1,-6.98%
17,Cc1nn(-c2ccc(F)cc2)c(-n2cccc2)c1C(=O)NCCC(C)C,-6.49%
18,CCC(C)NC(=O)C1CCN(c2cc(C)nc3c(-c4ccc(Cl)cc4)c(C)nn23)CC1 (stereo not shown),-3.7%
19,O=C1NC(=O)N(c2cccc3ccccc23)C(=O)/C1=C\c1ccccc1,-4.23%
20,O=C(c1ccc(S(=O)(=O)c2ccccc2)cc1)N1CCCCCC1,-0.597%
21,CCCNC(=O)c1ccc2c(c1)sc1nc(-c3ccc(C)cc3C)cn12,-5.42%
22,O=C(NCCc1nc2ccccc2n1Cc1ccccc1Cl)c1ccco1,2.02%
23,COc1ccccc1CNC(=O)C1CCN(c2nnc(N3CCCC3=O)s2)CC1,5.42%
24,COc1ccc(CNC(=O)CCN2C(=S)NC(C)(C)CC2C)cc1 (stereo not shown),-4.23%
25,CC1CCCC(NS(=O)(=O)c2ccc(CN3C(=O)c4cccnc4C3=O)cc2)C1C (stereo not shown),4.79%

row,SMILES,% Inhibition @ 10 uM
1,CCN(CC)C(=O)Cn1cc(C(=O)C(F)(F)F)c2ccc(C(=O)OC)cc21,0.64%
2,O=C(CN1CCN(c2ccccc2)CC1)Nc1cc(C(F)(F)F)cc(C(F)(F)F)c1,5.51%
3,c1ccc(CN2CCN(c3ncnc4scc(-c5ccccc5)c34)CC2)cc1,4.99%
4,COc1ccc(/C=C2\SC(=O)N(CCOc3ccc(F)cc3)C2=O)c(OC)c1,-1.28%
5,Cc1cc(C)c(S(=O)(=O)Nc2ccc(O)c(Cl)c2)c(C)c1,-13.4%
6,O=c1ccc2cc(S(=O)(=O)N3CCC(Cc4ccccc4)CC3)ccc2o1,-3.07%
7,CCOC(=O)N1CCC(N2CCN(CCO)CC2)CC1,-3.6%
8,Cc1c(C(=O)NC(C)C)oc2ccc3c(c12)C(=O)CC(C)(c1ccc(Cl)cc1)O3 (stereo not shown),-2.17%
9,Cc1oc2ncn3nc(-c4cc(-c5ccc(F)cc5)[nH]n4)nc3c2c1C,12%
10,CCOC(=O)c1cnn(-c2cccc(Cl)c2)c1C1CCNCC1,-2.83%
11,O=C1/C(=C/c2ccccc2)N=C(N2CCOCC2)N1c1cccc(Cl)c1,-7.11%
12,COc1cc(/C=C2/NC(=O)NC2=O)cc(Cl)c1OCc1cccc(C)c1,-1.25%
13,COc1ccc(Cn2c(C(=O)O)c(CNCCC3=CCCCC3)c3ccccc32)cc1,6.94%
14,COc1cc(C)c(S(=O)(=O)n2c(C)nc3ccccc32)cc1C,2.22%
15,N#C/C(=C\c1ccc2ccccc2c1)c1nc(-c2ccc(-c3ccccc3)cc2)cs1,-7.55%
16,COc1ccc(N2CCN(C(=O)CN3C(=O)c4ccccc4S3(=O)=O)CC2)cc1,8.19%
17,Cc1cc2nc(CSc3nc[nH]n3)cc(=O)n2o1,-5.28%
18,COc1cccc(CN2C(=O)c3ccccc3C(C(=O)O)C2c2ccsc2)c1 (stereo not shown),-4.9%
19,O=C(COc1ccc(Cl)cc1)Nc1ccc(S(=O)(=O)Nc2nccs2)cc1,1.87%
20,O=C(COc1ccccc1Cl)Nc1ccc(NC(=O)COc2ccccc2Cl)cc1,0.909%
21,O=C(/C=C/c1ccccc1Cl)Nc1cccc(C(F)(F)F)c1,-1.62%
22,CC1CCN(C(=O)CNS(=O)(=O)c2ccc(Cl)cc2)CC1,-7.45%
23,NC12CC3CC(C1)CC(CC(=O)O)(C3)C2,3.18% and 4.08%
24,CN(C1CCCC1)C1CCN(C(=O)CNC(=O)/C=C/c2ccc(F)cc2)CC1,-4.71%
25,Cc1ccc(C)c(-n2c(CNC(=O)c3cccc(F)c3)nnc2SCC(=O)Nc2nccs2)c1,73.7%

row,SMILES,% Inhibition @ 10 uM
1,O=C(CCn1ccc2cc(S(=O)(=O)N3CCCC3)ccc21)NCCc1ccc(Cl)cc1,0.58%
2,Cc1cccc(NC(=O)c2ccc([N+](=O)[O-])cc2Cl)c1,-2.6%
3,CC(=O)c1ccc[n+](C(=O)Cc2ccccc2)c1,-1.6%
4,CN1CCCN(Cc2cccc(Cl)c2Cl)CC1,0.847%
5,CC1CCN(c2c(S(=O)(=O)c3ccccc3)cnc3ccc(F)cc23)CC1,-5.2%
6,O=C(O)c1ccc(SCc2ccccc2)cn1,-3.92%
7,CCOC(=O)c1sc(N2C(=O)c3oc4ccccc4c(=O)c3C2c2cccc(O)c2)nc1C (stereo not shown),0.189%
8,O=C(c1ccncc1)c1cnc2ccccc2c1,6.98%
9,Cc1csc(NC(=O)c2sc3nc4c(cc3c2N)N2CCC4CC2)n1,0.895%
10,Cn1c(-c2nonc2NC(=O)c2ccc(C(C)(C)C)cc2)nc2ccccc21,3.05%
11,O=C(NCc1ccccc1)/C(O)=C/C(=O)c1ccc(Cl)cc1,-2.55%
12,NC(=O)c1c(NC(=O)COc2ccc3ccccc3c2Br)sc2c1CCCC2,-2.07%
13,CC1CCN(S(=O)(=O)c2ccc3c(ccn3CC(=O)NCc3cccc(Cl)c3)c2)CC1,-0.177%
14,COc1ccccc1NC(=O)c1ccc(CNS(=O)(=O)c2cccc(Cl)c2)cc1,5.69%
15,CCOc1ccc(NC(=O)c2ccn(C)n2)cc1,-1.36%
16,O=c1cccc2n1C[C@H]1C[C@@H]2CN(Cc2ccc(O)cc2)C1,-2.48%
17,O=C(CSCc1cnn(-c2ccccc2)c1-n1cccc1)N1CCCC1,-5.15%
18,Cc1nnc2c3ccccc3nc(N3CCN(Cc4ccccc4)CC3)n12,0.882%
19,Cc1nn(CC(=O)NCCCc2ccccc2)c(=O)c2cccn12,-5.27%
20,CC(C)n1cc(/C=C2/SC(=O)N(CC(=O)N3CCOCC3)C2=O)c2ccccc21,-4.52%
21,Cc1nn(Cc2ccccc2)c(C)c1[N+](=O)[O-],0.989%
22,CCN1C(=O)/C(=C\c2ccc(F)cc2)N=C1SCC(=O)NCc1ccccc1,2.68%
23,CC(C)=CCCC(C)N1CC23C=CC(O2)C(C(=O)O)C3C1=O (stereo not shown),-6.6%
24,O=C(Cn1ncc2c3ccccc3n(Cc3ccccc3)c2c1=O)NCc1cccnc1,-3.35%
25,COC(=O)c1ccc2c(c1)C(C)(C)C(/C=C/c1ccc3c(c1)OCO3)=[N+]2C,2.04%

row,SMILES,% Inhibition @ 10 uM
1,CCn1c(C)cc(/C=C2\SC(=O)N(CC(=O)Nc3ccc(C)cc3)C2=O)c1C,-1.46%
2,Cc1oc2ncnc(NCC(C)C)c2c1C(=O)O,2.74%
3,O=C(NCc1ccccn1)c1nnc(-c2ccc3c(c2)OCO3)o1,-1.38%
4,CN(C)CCN(Cc1ccccc1)C(=O)Cc1noc2ccccc12,-0.788%
5,c1ccc2c3c([nH]c2c1)CN(Cc1ccsc1)CC3,1.4%
6,Cc1cc(C)c(C#N)c(Cl)n1,1.27%
7,O=C1CC(C(=O)Nc2ccccc2)C(c2ccccc2)O1 (stereo not shown),-0.999%
8,CC(C)(C)c1ccc(C(=O)n2cc(Cl)cn2)cc1,-2.39%
9,CN1C(=O)NC(c2cccc(F)c2)C2=C1CCCC2=O (stereo not shown),-0.62%
10,CCN1C(=O)CC(C(=O)Nc2ccc(C(=O)O)cc2)S/C1=N\c1cccc(F)c1 (stereo not shown),-1.95%
11,Nc1c(-c2nc(-c3ccc4c(c3)OCO4)no2)nnn1-c1ccccc1C(F)(F)F,1.66%
12,Cc1ccc(-c2cc(C(=O)N3CCCCC3C)n[nH]2)cc1C (stereo not shown),0.713%
13,O=C(/C=C/c1c[nH]c2ccccc12)N1CCCCC1,-6.2%
14,CC1CN(C)C(c2ccccc2)CC1=O (stereo not shown),-6.25%
15,Cc1nn(-c2ccccc2)c2c1C(c1cc(Br)ccc1F)C(C#N)=C(N)O2 (stereo not shown),-2.77%
16,CCOC(=O)C1=C(O)/C(=C\c2cccc(O)c2)N=C1C,-3.63%
17,O=C(CCc1nnc2n(CCc3ccccc3)c(=O)c3ccccc3n12)NCCc1ccc(Cl)cc1,-0.326%
18,NC(=O)NC(=O)Nc1ccc(Cl)cc1,-0.807%
19,O=C1CCCC2=C1C(c1cccs1)CC(=O)N2c1nnc(SCc2ccccc2Cl)s1 (stereo not shown),-4.73%
20,Cc1nc2nc3[nH]c4ccccc4c3nn2n1,4.54%
21,O=C(Cc1ccc(Cl)cc1)Nc1ccc(N2CCOCC2)cc1,-6.36%
22,Cc1oc(-c2ccc(C(=O)NCCN3CCCCCC3)cc2)nc1CS(=O)(=O)c1ccccc1,-10.3%
